From EP4722253A1 (dated 2026)

T1: rhVEGF 165 recombinant protein (human, UniProt P15692-4 27-191)
T1 construct: also called VEGF-A
T1 sequence (looked up): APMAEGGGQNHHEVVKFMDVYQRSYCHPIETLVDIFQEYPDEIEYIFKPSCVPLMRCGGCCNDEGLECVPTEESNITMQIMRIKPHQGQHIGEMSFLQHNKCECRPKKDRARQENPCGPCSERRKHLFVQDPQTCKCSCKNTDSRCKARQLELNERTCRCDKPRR

B1: Q-SBL-108 (bispecific antibody, human IgG1, kappa)
heavy 1: [skipping about 120 residues]ASPREPQVCTLPPSREEMTKNQVSLSCAVKGFYPSDIAVEWESNGQPENNYKTTPPVLDSDGSFFLVSKLTVDKSRWQQGNVFSCSVMHEALHNHYTQKSLSLSPGKGGGGSASTKGPSVFPLAPSSKSTSGGTAALGCLVKDYFPEPVTVSWNSGALTSGVHTFPAVLQSSGLYSLSSVVTVPSSSLGTQTYICNVNHKPSNTKVDKKVEPKSSDKTHTCPPCPAPELLGGPSVFLFPPKPKDTLMISRTPEVTCVVVDVSHEDPEVKFNWYVDGVEVHNAKTKPREEQYNSTYRVVSVLTVLHQDWLNGKEYKCKVSNKALPAPIEKTISKAKGQPREPQVYTLPPCREEMTKNQVSLSCAVKGFYPSDIAVEWESNGQPENNYKTTPPVLDSDGSFFLVSKLTVDKSRWQQGNVFSCSVMHEALHNHYTQKSLSLSPGK
heavy 2: EVQLVESGGGLVQPGGSLRLSCAASGYTFTNYGMNWVRQAPGKGLEWVGWINTYTGEPTYAADFKRRFTFSLDTSKSTAYLQMNSLRAEDTAVYYCAKYPHYYGSSHWYFDVWGQGTLVTVSSASTKGPSVFPLAPSSKSTSGGTAALGCLVKDYFPEPVTVSWNSGALTSGVHTFPAVLQSSGLYSLSSVVTVPSSSLGTQTYICNVNHKPSNTKVDKKV[skipping human IgG1 Fc with changes]
light 1: [skipping about 100 residues]RTPREPQVYTLPPCREEMTKNQVSLWCLVKGFYPSDIAVEWESNGQPENNYKTTPPVLDSDGSFFLYSKLTVDKSRWQQGNVFSCSVMHEALHNHYTQKSLSLSPGKGGGGSRTVAAPSVFIFPPSDEQLKSGTASVVCLLNNFYPREAKVQWKVDNALQSGNSQESVTEQDSKDSTYSLSSTLTLSKADYEKHKVYACEVTHQGLSSPVTKSFNRGES
light 2: DIQMTQSPSSLSASVGDRVTITCSASQDISNYLNWYQQKPGKAPKVLIYFTSSLHSGVPSRFSGSGSGTDFTLTISSLQPEDFATYYCQQYSTVPWTFGQGTKVEIKRTVAAPSVFIFPPSDEQLKSGTASVVCLLNNFYPREAKVQWKVDNALQSGNSQESVTEQDSKDSTYSLSSTLTLSKADYEKHKVYACEVTHQGLSSPVTKSFNRGEC
notes: copies: 1 + 1 + 1 + 1
B2: Q-SBL-100 (bispecific antibody, human IgG1, kappa)
heavy 1: [skipping about 120 residues]ASPREPQVYTLPPCREEMTKNQVSLSCAVKGFYPSDIAVEWESNGQPENNYKTTPPVLDSDGSFFLVSKLTVDKSRWQQGNVFSCSVMHEALHNHYTQKSLSLSPGKGGGGSASTKGPSVFPLAPSSKSTSGGTAALGCLVKDYFPEPVTVSWNSGALTSGVHTFPAVLQSSGLYSLSSVVTVPSSSLGTQTYICNVNHKPSNTKVDKKVEPKSSDKTHTCPPCPAPELLGGPSVFLFPPKPKDTLMISRTPEVTCVVVDVSHEDPEVKFNWYVDGVEVHNAKTKPREEQYNSTYRVVSVLTVLHQDWLNGKEYKCKVSNKALPAPIEKTISKAKGQPREPQVYTLPPCTLPPSREEMTKNQVSLSCAVKGFYPSDIAVEWESNGQPENNYKTTPPVLDSDGSFFLVSKLTVDKSRWQQGNVFSCSVMHEALHNHYTQKSLSLSPGK
heavy 2: EVQLVESGGGLVQPGGSLRLSCAASGYTFTNYGMNWVRQAPGKGLEWVGWINTYTGEPTYAADFKRRFTFSLDTSKSTAYLQMNSLRAEDTAVYYCAKYPHYYGSSHWYFDVWGQGTLVTVSSASTKGPSVFPLAPSSKSTSGGTAALGCLVKDYFPEPVTVSWNSGALTSGVHTFPAVLQSSGLYSLSSVVTVPSSSLGTQTYICNVNHKPSNTKVDKKV[skipping human IgG1 Fc with changes]
light 1: [skipping about 100 residues]RTPREPQVCTLPPSREEMTKNQVSLWCLVKGFYPSDIAVEWESNGQPENNYKTTPPVLDSDGSFFLYSKLTVDKSRWQQGNVFSCSVMHEALHNHYTQKSLSLSPGKGGGGSRTVAAPSVFIFPPSDEQLKSGTASVVCLLNNFYPREAKVQWKVDNALQSGNSQESVTEQDSKDSTYSLSSTLTLSKADYEKHKVYACEVTHQGLSSPVTKSFNRGES
light 2: B1 light 2
notes: copies: 1 + 1 + 1 + 1

Target: T1, rhVEGF 165 recombinant protein
Assay: single antigen ELISA, rhVEGF165 coated, anti-hIgG Fc-HRP

Binder | EC50
B1 | 0.066 nM
B2 | 0.1 nM
